Reference: the supplement of paper PMC9446081
The campaign covered roughly 39,000 compounds. About 220 (0.56%) showed activity. The list shows a part of the results.
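Note: static incubation at 37 °C against the wild-type strain, values averaged over two biological replicates.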

The compounds below were run on Escherichia coli K-12 BW25113 (assay: relative growth (OD600 normalised to plate interquartile mean) (fraction); higher = less growth inhibition, active = 0.2 or less). Conditions: 50 µM; LB; incubation time: overnight (16-24 h).
With `NCC[C@H]1CC[C@H](NC(=O)Nc2ccc(F)cc2)[C@H](CO)O1` the relative growth was inactive: 1.01.
For `CO[C@@H]1CN(C)C(=O)c2ccc(NC(=O)c3ccc(F)cc3)cc2OC[C@@H](C)N(C(=O)CN(C)C)C[C@H]1C`, the relative growth was inactive: 0.985.
`CS(=O)(=O)N1CCOC[C@]2(CN(c3ncccn3)CCO2)C1` was tested, and the relative growth was inactive: 1.03.
`Cc1noc(C)c1NC(=O)Nc1ccc2c(c1)C(=O)N([C@H](C)CO)C[C@@H](C)[C@H](CN(C)C(=O)Nc1ccc(C(F)(F)F)cc1)OCCCC[C@H](C)O2` was tested, and the relative growth was inactive: 1.04.
For `Cc1noc(C)c1S(=O)(=O)Nc1ccc2c(c1)CC(=O)N([C@H](C)CO)C[C@@H](C)[C@H](CN(C)S(=O)(=O)c1cccs1)O2`, the relative growth was inactive: 1.01.
For `CN1C(=O)c2cc(NC(=O)c3cccs3)ccc2OC[C@H]2O[C@@H](CC(=O)NCCN3CCCCC3)CC[C@@H]21`, the relative growth was inactive: 1.01.
With `C[C@@H]1CN([C@H](C)CO)C(=O)c2cc(NC(=O)Cn3cnnn3)ccc2O[C@H]1CN(C)Cc1ccncc1` the relative growth was inactive: 0.871.
In the case of `O=C(O)CN(CCc1ccccc1)CC(=O)O`, the relative growth is reported as inactive: 1.
With `CN(C)CCCNC(=O)C[C@@H]1CC[C@@H]2[C@H](COC[C@H](O)CN2S(=O)(=O)c2ccccc2)O1` the relative growth was inactive: 1.02.
With `CSC[C@H](N)C(=O)O` the relative growth was inactive: 0.9.
With `C[C@@H]1CN([C@@H](C)CO)C(=O)c2cccc(NC(=O)Nc3cccc4ccccc34)c2O[C@H]1CN(C)C(=O)Nc1cccc2ccccc12` the relative growth was inactive: 1.01.
`C[C@@H]1CN([C@@H](C)CO)C(=O)Cc2cc(NC(=O)CCN3CCOCC3)ccc2O[C@@H]1CN(C)Cc1ccc(C(=O)Nc2ccccc2N)cc1` was tested, and the relative growth was inactive: 0.989.
In the case of `CCn1c2c(c3cc(C4CCCCC4)ccc31)CCCC2=O`, the relative growth is reported as inactive: 1.03.
In the case of `Cn1cnc(S(=O)(=O)N2C[C@@H](O)COC[C@H]3O[C@@H](CC(=O)NCc4cc(F)cc(F)c4)CC[C@@H]32)c1`, the relative growth is reported as inactive: 0.977.
In the case of `COc1ccc(NC(=O)N(C)C[C@@H]2Oc3ccc(NC(=O)CCN4CCOCC4)cc3CC(=O)N([C@@H](C)CO)C[C@H]2C)cc1`, the relative growth is reported as inactive: 0.989.
In the case of `C[C@@H]1CN([C@@H](C)CO)C(=O)c2c(c3ccccc3n2C)-c2ccccc2CO[C@H]1CN(C)S(=O)(=O)c1cn(C)cn1`, the relative growth is reported as inactive: 0.995.
`C[C@@H]1CN([C@H](C)CO)C(=O)c2cc(NC(=O)C3CC3)ccc2O[C@@H]1CN(C)S(=O)(=O)c1cccs1` was tested, and the relative growth was inactive: 0.996.
In the case of `COc1ccc(NC(=O)N(C)C[C@H]2Oc3ccc(NS(C)(=O)=O)cc3CC(=O)N([C@@H](C)CO)C[C@H]2C)cc1`, the relative growth is reported as inactive: 1.
With `O=C(C[C@@H]1C=C[C@@H](NS(=O)(=O)c2ccc(F)cc2)[C@@H](CO)O1)N1CCC(Cc2ccccc2)CC1` the relative growth was inactive: 1.01.
With `C[C@H]1CN([C@@H](C)CO)C(=O)Cc2cc(NS(=O)(=O)c3cccs3)ccc2O[C@@H]1CN(C)Cc1ccc(-c2ccccc2)cc1` the relative growth was inactive: 1.05.
`C[C@@H]1CCCCO[C@@H](CN(C)C(=O)Nc2ccc(C(F)(F)F)cc2)[C@H](C)CN([C@H](C)CO)C(=O)c2cc(N(C)C)ccc2O1` was tested, and the relative growth was inactive: 0.952.
With `C[C@H](CO)N1C[C@H](C)[C@H](CN(C)S(=O)(=O)c2ccc(Cl)cc2)OCc2ccccc2-c2c(n(C)c3ccccc23)C1=O` the relative growth was inactive: 1.01.
`CN1C(=O)c2cc(NC(=O)C3CCOCC3)ccc2OC[C@@H]2O[C@@H](CC(=O)NCc3ccc4c(c3)OCO4)CC[C@@H]21` was tested, and the relative growth was inactive: 0.99.
In the case of `Cc1noc(C)c1S(=O)(=O)Nc1ccc2c(c1)C(=O)N([C@H](C)CO)C[C@@H](C)[C@H](CN(C)CC1CCCCC1)OCCCC[C@H](C)O2`, the relative growth is reported as inactive: 0.903.
In the case of `CC(C)/C=C1\CC/C(=C\c2ccc(C(F)(F)F)cc2)C1=O`, the relative growth is reported as inactive: 1.02.
With `COc1ccc(NC(=O)Nc2ccc3c(c2)C(=O)N([C@@H](C)CO)C[C@H](C)[C@H](CN(C)C(=O)Nc2ccc4c(c2)OCO4)OCCCC[C@H](C)O3)cc1` the relative growth was inactive: 1.
In the case of `Fc1cncnc1`, the relative growth is reported as inactive: 1.
In the case of `CC(=O)O[C@H]1C=C[C@@H](O)C1`, the relative growth is reported as inactive: 0.991.
For `COc1ccc(S(=O)(=O)Nc2ccc3c(c2)C(=O)N([C@H](C)CO)C[C@@H](C)[C@@H](CN(C)Cc2ccccc2)OCCCC[C@H](C)O3)cc1`, the relative growth was inactive: 1.01.
For `Cc1noc(C)c1NC(=O)N[C@@H]1C=C[C@H](CC(=O)NCCCN(C)C)O[C@@H]1CO`, the relative growth was inactive: 0.995.
For `C[C@H]1CN([C@@H](C)CO)S(=O)(=O)c2ccc(-c3ccc(C(=O)N(C)C)cc3)cc2O[C@@H]1CN(C)C(=O)C1CCC1`, the relative growth was inactive: 1.
In the case of `O=C(NCC(F)(F)F)[C@@H]1[C@@H](CO)[C@@H]2Cn3c(cccc3=O)[C@H]1N2C(=O)C1CCC1`, the relative growth is reported as inactive: 0.975.
With `CCNC(=S)N1CCCC[C@@H]1CO` the relative growth was inactive: 0.986.
In the case of `CCCNC(=O)Nc1ccc2c(c1)OC[C@@H](C)N(Cc1ccc(-c3ccccn3)cc1)C[C@@H](C)[C@@H](OC)CN(C)C2=O`, the relative growth is reported as inactive: 1.01.
With `C[C@@H]1CN([C@@H](C)CO)C(=O)c2cccc(NC(=O)Nc3ccc4c(c3)OCO4)c2O[C@@H]1CN(C)Cc1ccc(C(=O)Nc2ccccc2N)cc1` the relative growth was inactive: 1.
`C[C@@H]1CN([C@@H](C)CO)C(=O)c2cc(NS(=O)(=O)c3ccc(Cl)cc3)ccc2O[C@@H](C)CCCCO[C@H]1CN(C)Cc1ccncc1` was tested, and the relative growth was inactive: 1.01.
With `CCCCOC(=O)c1ccc(N)cc1` the relative growth was inactive: 1.01.
`C[C@@H]1CN([C@H](C)CO)C(=O)Cc2cc(NC(=O)Nc3ccc(C(F)(F)F)cc3)ccc2O[C@@H]1CN(C)C(=O)Nc1cccc2ccccc12` was tested, and the relative growth was inactive: 1.
`CN1C(=O)c2cc(NC(=O)C3CCC3)ccc2OC[C@@H]2O[C@@H](CC(=O)NCCc3ccncc3)CC[C@@H]21` was tested, and the relative growth was inactive: 0.997.
In the case of `C[C@@H]1CN([C@@H](C)CO)C(=O)Cc2cc(NC(=O)Nc3ccc4c(c3)OCO4)ccc2O[C@H]1CN(C)C(=O)Nc1ccc(C(F)(F)F)cc1`, the relative growth is reported as inactive: 0.974.
For `CCS(=O)(=O)N1C[C@]2(CN(C2)C(=O)c2ccc3c(c2)OCO3)c2c(n(c3cc(ccc23)OC)C)[C@H]1CO`, the relative growth was inactive: 1.01.
For `O=C(NC[C@@H](O)CO)[C@]1(CCS(=O)(=O)c2ccccc2)N=C(c2ccc(OCCCO)cc2)O[C@@H]1c1ccccc1`, the relative growth was inactive: 1.02.
`C[C@H](CO)N1C[C@H](C)[C@H](CN(C)Cc2ccc(C(=O)Nc3ccccc3N)cc2)Oc2ccc(NC(=O)Nc3ccc(F)cc3)cc2C1=O` was tested, and the relative growth was inactive: 0.997.
For `COc1ccc(S(=O)(=O)Nc2cccc3c2O[C@@H](CN(C)Cc2ccc(Cl)c(Cl)c2)[C@H](C)CN([C@@H](C)CO)C3=O)cc1`, the relative growth was inactive: 0.993.
`C[C@H]1CN([C@@H](C)CO)C(=O)Cc2cc(NC(=O)CCC(F)(F)F)ccc2O[C@H]1CN(C)S(=O)(=O)c1ccccc1` was tested, and the relative growth was inactive: 0.991.
`COc1ccc([C@@H]([C@H](Cc2ccccc2)OC(C)=O)N2C[C@H]3C(=NO[C@@H]3[C@@H](OC(C)=O)c3ccccc3)[C@@H]2Cc2ccccc2)cc1` was tested, and the relative growth was inactive: 1.01.
`O=C(Nc1ccc(C(=O)O)c(O)c1)c1ccccc1` was tested, and the relative growth was inactive: 1.01.
For `C[C@H]1CCCCO[C@H](CN(C)S(=O)(=O)c2ccc(Cl)cc2)[C@@H](C)CN([C@@H](C)CO)C(=O)c2cc(NS(=O)(=O)c3cccs3)ccc2O1`, the relative growth was inactive: 1.06.
In the case of `C[C@H](CO)N1C[C@H](C)[C@H](CN(C)Cc2ccccc2)OCCCC[C@H](C)Oc2ccc(NC(=O)NC3CCCCC3)cc2C1=O`, the relative growth is reported as inactive: 0.993.
In the case of `C[C@H](CO)N1C[C@H](C)[C@@H](CN(C)C(=O)Nc2ccc(F)cc2)OCCCC[C@H](C)Oc2ccc(NC(=O)c3ccncc3)cc2C1=O`, the relative growth is reported as inactive: 0.979.
`COC(=O)c1nc[nH]c1C(=O)OC` was tested, and the relative growth was inactive: 1.07.
`O=C1N[C@H](Cc2ccccc2)COC(=O)[C@@H](Cc2ccc(F)cc2)CCC=CC[C@@H]1CC(=O)N(CCO)Cc1ccccc1` was tested, and the relative growth was inactive: 1.01.
`C[C@@H]1CCCCO[C@@H](CN(C)Cc2ccc3c(c2)OCO3)[C@@H](C)CN([C@H](C)CO)C(=O)c2cc(NC(=O)CCCCCC(=O)Nc3ccccc3N)ccc2O1` was tested, and the relative growth was inactive: 0.98.
For `Cc1noc(C)c1NC(=O)Nc1ccc2c(c1)C(=O)N([C@H](C)CO)C[C@@H](C)[C@@H](CN(C)CC1CCCCC1)OCCCC[C@H](C)O2`, the relative growth was inactive: 0.992.
In the case of `CCS(=O)(=O)N[C@@H]1C=C[C@H](CC(=O)NCc2ccc(Cl)cc2)O[C@H]1CO`, the relative growth is reported as inactive: 0.998.
For `CC[C@@H]1/C=C(\C)C[C@H](C)C[C@H](OC)[C@H]2O[C@@](O)(C(=O)C(=O)N3CCCC[C@H]3C(=O)O[C@H](/C(C)=C/[C@@H]3CC[C@H](Cl)[C@H](OC)C3)[C@H](C)[C@@H](O)CC1=O)[C@H](C)C[C@@H]2OC`, the relative growth was inactive: 1.12.
`C[C@@H]1CCCCO[C@H](CN(C)CC2CC2)[C@H](C)CN([C@@H](C)CO)C(=O)c2cc(NC(=O)Nc3cccc4ccccc34)ccc2O1` was tested, and the relative growth was inactive: 0.98.
`C[C@H]1CN([C@@H](C)CO)C(=O)c2cc(NC(=O)Nc3ccc4c(c3)OCO4)ccc2O[C@H]1CN(C)Cc1ccc(C(F)(F)F)cc1` was tested, and the relative growth was inactive: 0.953.
With `CN1C(=O)c2cc(NC(=O)c3ccc(F)c(F)c3)ccc2OC[C@H]2O[C@H](CC(=O)N3CCOCC3)CC[C@H]21` the relative growth was inactive: 1.
`O=C(O)[C@@H]1[O][Sb]2([OH])([O][Sb]34([OH])[O][C@H]([C@H](O)CO)[C@H]([O]3)[C@H](C(=O)O)[O]4)[O][C@H]([C@H](O)CO)[C@@H]1[O]2` was tested, and the relative growth was inactive: 0.951.
`C[C@@H]1CN([C@H](C)CO)C(=O)c2cc(NC(=O)NC3CCCCC3)ccc2O[C@H]1CN(C)S(C)(=O)=O` was tested, and the relative growth was inactive: 1.03.
